# Assay results published in PubChem BioAssay AID1508624 (National Center for Advancing Translational Sciences (NCATS), 2021).
# Among all 48,000 compounds or so, about 120 (0.25%) were called active. The inconclusive results got no clear call from the source; some entries with a clear call stand among them for comparison. The call rests on the fitted dose curve; in most records, active means well fitted activation curve with a large enough effect; inconclusive means small, poorly fitted or top-dose-only effect, or another doubt; inactive means no such curve, though single readings can be large or run the other way. A potency beside an inconclusive call is a rough fit, not a confirmed value.
# Assay: Primary qHTS for Identification of Small Molecule Activators of Huntingtin-Antisense Promoter Activity; further: nearly all actives have a fitted effect of over 55% in size
# Conditions: HEK293 HTT-AS promoter firefly luciferase reporter, 24 h; activity change, positive = activation: at 57.5 µM (top of the series), percent change from vehicle, -100% = no light unless noted
# Method in brief: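 Luminescence was read after Dual-Glo reagent and a 10 min room-temperature incubation. Values were normalized to vehicle (0% activity) and zero RLU (-100% activity). Reporter HEK293 cells had been exposed to compounds (up to 57.5 uM final) for 24 h.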
# Potency means the concentration at half of the fitted maximal effect; tags describe the fitted curve by direction and shape.
Compound,Potency,"activity change, positive = activation"
Cc1cccn2cc(-c3cccc(NC(=O)C(C)C)c3)nc12,"inconclusive: 25.1 µM [activator, partial curve]",–
CCc1ccc(NC(=O)Cn2c(=O)n(CCCCC(=O)NCc3ccccc3Cl)c(=O)c3ccccc32)cc1,inactive,–
COc1ccc(-n2nc3cc(C)c(NC(=O)c4ccc(-c5ccc(Br)cc5)o4)cc3n2)cc1,"inconclusive: 3.98 µM [activator, full curve]",–
Cc1ccc(CCNC(=O)c2ccc3[nH]c(C)c(C)c3c2)cc1,inactive,–
Oc1ccccc1Nc1nc2ccccc2n2nnnc12,"inconclusive: 12.6 µM [activator, partial curve]",–
CCOc1ccc(C(=O)NCCc2csc(-c3cccc(F)c3)n2)cc1OCC,inactive,–
Fc1ccc(-n2ncc3c(Nc4ccc5c(c4)OCCO5)ncnc32)cc1,"inconclusive: 39.8 µM [activator, single point]",–
O=C(NCCc1ccccc1)c1ccc(Nc2nc3ccccc3n3nnnc23)cc1,inactive,–
COc1ccc(-c2nc(N3CCOCC3)c3sc(CN(C)c4ncc(C(=O)NO)cn4)cc3n2)cn1,"inconclusive: 0.273 µM [activator, full curve]",–
COc1ccccc1-c1noc(-c2ccc(NC3CCCC3)c([N+](=O)[O-])c2)n1,"inconclusive: 1.78 µM [activator, full curve, poor fit]",–
CCCn1c(=O)c2sccc2n2c(CCCC(=O)NCc3ccccc3)nnc12,inactive,–
COc1ccc(-c2cn3nc(N4CCC(C(=O)NCc5ccc(F)cc5)CC4)sc3n2)cc1,"inconclusive: 0.891 µM [activator, full curve, poor fit]",–
CC(=O)c1cc(-c2ccc(F)cc2)n(CC(=O)NC2CCCCCC2)c1C,inactive,–
Cc1ccc(-n2c(SCc3nc(-c4ccc(Cl)cc4)no3)nnc2-c2ccncc2)cc1,inactive,–
CCC(=O)N1CCc2cc(S(=O)(=O)CCC(=O)NCc3ccccc3Cl)ccc21,inactive,–
CCOc1ccc(C(=O)Nc2cc(-c3ccccc3)no2)cc1,"inconclusive: 28.2 µM [activator, single point]",–
CCOc1ccccc1NC(=O)c1cc2ccc3cccnc3c2[nH]1,"inconclusive: 1.78 µM [activator, full curve, poor fit]",–
CCN(Cc1ccccc1)C(=O)c1cc2ccc3cccnc3c2[nH]1,"inconclusive: 2.51 µM [activator, single point]",–
O=C(c1cc(-c2ccc(Cl)cc2)on1)N(Cc1ccc(F)cc1)Cc1ccco1,–,inconclusive: -59.4% [activator]
CCc1cccc(NC(=O)c2sc3nc[nH]c(=O)c3c2C)c1,"inconclusive: 3.16 µM [activator, partial curve]",–
O=C(Nc1cccc(Br)c1)c1cc(-c2ccc3c(c2)OCCO3)on1,"inconclusive: 0.447 µM [activator, full curve, poor fit]",–
Clc1ccccc1Nc1ncnc2c1nc1n2CCCCC1,"inconclusive: 2.82 µM [activator, partial curve, poor fit]",–
Cc1cc(C)c2sc(N3CCN(C(=O)C4CC4)CC3)nc2c1,"inconclusive: 11.2 µM [activator, partial curve, poor fit]",–

Compound,Potency,"activity change, positive = activation"
COc1ccc(C(=O)c2sc(Nc3cc(Cl)ccc3C)nc2N)cc1OC,–,inconclusive: 3.64% [activator]
CC(C)OCCCNC(=O)CSc1c2c(nc3ccc(Cl)cc13)CCCC2,inactive,–
CCCOc1cccc(C(=O)Nc2ccc(-c3cc4ccccc4oc3=O)c(C)c2)c1,–,"inactive: -6.7% [at 11.5 µM, percent change from vehicle, -100% = no light]"
COc1cc(C2NC(=O)c3c(sc4c3CCN(C)C4)N2)ccc1OC(=O)c1ccccc1 (stereo not drawn),"inconclusive: 7.94 µM [activator, partial curve]",–
Cc1ccccc1C(=O)c1cccn1CC(=O)NCc1cccc(Cl)c1,"inconclusive: 20 µM [activator, partial curve, poor fit]",–
Cn1c(SCc2ccccc2F)nc2c([nH]c3ccccc32)c1=O,inactive,–
CN1CCN(C(CNC(=O)C(=O)Nc2cccc(Cl)c2)c2ccc3c(c2)OCO3)CC1 (stereo not drawn),inactive,–
Cc1cccc(-c2nc3c4ccccc4nc(NCc4ccc(F)cc4)n3n2)c1,"inconclusive: 17.8 µM [activator, single point]",–
Cc1cc(=O)n(CC(=O)N2CCN(c3ccc(F)cc3)CC2)c2c1c(C)nn2C,inactive,–
COc1ccc(NCc2cc3ccc(OC)cc3n(CC(=O)Nc3cc(Cl)ccc3C)c2=O)cc1,–,inconclusive: 36.8% [activator]
CC(Oc1ccccc1F)C(=O)Nc1ccc(-c2nc3ccccc3s2)cc1 (stereo not drawn),"inconclusive: 1 µM [activator, partial curve, poor fit]",–
N#Cc1ccc(NC(=O)Nc2ccccc2Br)c2n[nH]nc12,inactive,–
CCOc1ccc(CNC(=O)CCCn2c(=O)c3cccn3c3ccc(F)cc32)cc1,inactive,–
Cn1c(=O)c(=O)n(C)c2cc(NC(=O)c3ccccc3Br)ccc21,inactive,–
Cc1ccc(-c2nc3cccnc3s2)cc1NC(=O)Cc1ccccc1,"inconclusive: 12.6 µM [activator, partial curve]",–
COc1ccccc1Nc1ncnc2c1nc1n2CCCC1,"inconclusive: 12.6 µM [activator, partial curve]",–
CCOCCCn1c(=N)c(C(=O)NCC2CCCO2)cc2c(=O)n3cc(C)ccc3nc21 (stereo not drawn),inactive,–
O=C(Nc1ccccc1C(=O)O)c1cccc(S(=O)(=O)N2CCCC2)c1,"inconclusive: 11.2 µM [activator, partial curve, poor fit]",–
COc1ccccc1CNc1nc(-c2ccco2)nn1S(=O)(=O)c1ccc(Cl)cc1,"inconclusive: 8.91 µM [activator, partial curve]",–
Cc1ccc(SCC(=O)Nc2cccc(-c3nc4cc(Cl)ccc4o3)c2C)cc1,"inconclusive: 5.01 µM [activator, partial curve]",–
N#CC[C@H](C1CCCC1)n1cc(-c2ncnc3[nH]ccc23)cn1,"inconclusive: 27.3 µM [activator, single point]",–
O=C(NC1CC(=O)N(c2cccc(F)c2)C1)C1CCCCC1 (stereo not drawn),–,inconclusive: 0.8% [activator]
COc1ccccc1CCNC(=O)c1cc2ccccn2n1,"inconclusive: 7.94 µM [activator, partial curve]",–

Compound,Potency,"activity change, positive = activation"
CCOC(=O)C1CCCN(C(=O)c2cc3c(=O)n(C)c4ccccc4c3s2)C1 (stereo not drawn),inactive,–
COc1cccc(CNC(=O)Cn2c(=O)oc3cc(S(=O)(=O)N4CCC(C)CC4)ccc32)c1,inactive,–
CCC(C(=O)OC)n1nnc2sc(-c3ccccc3)cc2c1=O (stereo not drawn),"inconclusive: 3.55 µM [activator, single point]",–
CCCNc1ccc(-c2nc(-c3ccco3)no2)cc1[N+](=O)[O-],"inconclusive: 1 µM [activator, partial curve, poor fit]",–
COc1ccc(CNc2nc(-c3ccco3)nn2C(=O)CC(C)C)cc1,"inconclusive: 15.8 µM [activator, partial curve]",–
Cc1ccc(Cn2cc(C(=O)c3ccc(C)cc3)c(=O)c3ccc(C)nc32)cc1,inactive,–
Cc1ccc(N2C(=O)c3oc4cc(C)c(C)cc4c(=O)c3C2c2cccc(O)c2)nc1 (stereo not drawn),inactive,–
NC1[C@H]2CN(c3nc4c(cc3F)c(=O)c(C(=O)O)cn4-c3ccc(F)cc3F)C[C@@H]12 (stereo partly drawn),active: 31.6 µM,–
COc1ccc(-c2nnc(SCC(=O)N3CCCCC3)o2)cc1,"inconclusive: 8.91 µM [activator, partial curve]",–
CC1CCN(C(=O)CN2c3ccc(Br)cc3-c3ccccc3S2(=O)=O)CC1,"inconclusive: 15.8 µM [activator, partial curve, poor fit]",–
COc1cc2nc(N3CCCN(C)CC3)nc(NC3CCN(Cc4ccccc4)CC3)c2cc1OC,"inconclusive: 6.11 µM [activator, full curve]",–
CCC(=O)Nc1cc(-c2nc3cc(C)cc(C)c3o2)ccc1C,"inconclusive: 2 µM [activator, full curve]",–
Cc1cccc2c1-c1sc(C(=O)Nc3ccccc3C(N)=O)cc1CO2,"inconclusive: 0.398 µM [activator, full curve, poor fit]",–
Cc1c(C(=O)N(C)c2ccccc2)sc2nc(-c3ccc(F)cc3)cn12,"inconclusive: 2.51 µM [activator, full curve]",–
CCc1cc2c(cc3c(=O)n(CC(=O)NC4CCC(C)CC4)nc(CC)n32)s1 (stereo not drawn),"inconclusive: 28.2 µM [activator, partial curve, poor fit]",–
O=C(Nc1ccc(Br)cc1F)c1ccc2nc(CCc3ccccc3)oc2c1,"inconclusive: 11.2 µM [activator, partial curve, poor fit]",–
COC(=O)CSCc1nc(-c2ccc(C(=O)OC)cc2)oc1C,inactive,–
CCCCN(CCCC)S(=O)(=O)c1ccc(C(=O)Nc2sc3c(c2C(N)=O)CCN(CC)C3)cc1,inactive,–
O=C(Nc1ccc(-c2cn3cccnc3n2)cc1)c1ccccc1F,"inconclusive: 8.91 µM [activator, partial curve]",–
O=C(Nc1ccc(F)cc1F)c1cc2ccc3cccnc3c2[nH]1,"inconclusive: 0.178 µM [activator, full curve, poor fit]",–
Cc1ccccc1Nc1cc(C(=O)NC2CCC(C)CC2)c2ccccc2n1 (stereo not drawn),"inconclusive: 17.8 µM [activator, partial curve, poor fit]",–
CCOc1ccc(NC(=O)CC2C(=O)N(c3ccc(F)cc3)C(=O)N2CCc2sccc2C)cc1 (stereo not drawn),inactive,–
